Laboratory results taken from US20250376535A1 (BEIJING STARMAB BIOMED TECHNOLOGY, published 2025).
Each block holds one binder with its values, some of them ahead of it.

Experiments:
[1] = target: T1, recombinant human CD16A (human, UniProt P08637 in part); experiment: ELISA on recombinant CD16A, OD450
T1 construct: also called rh-CD16A

[2] = target: T2, CD16A on the cell surface (human, UniProt P08637); experiment: flow cytometry on human NK cells, MFI
T2 construct: on the cell membrane; Cell-surface form; also called Jurkat-CD16A cells; human NK cells

[3] = target: T3, EGFR Fc (human, UniProt P00533 in part); experiment: ELISA on recombinant human EGFR-Fc, OD450
T3 construct: also called EGFR-hFc; recombinant human EGFR-Fc

[4] = target: T2, CD16A on the cell surface; experiment: flow cytometry on Jurkat-CD16A cells, MFI
[5] = target: T4, EGFR on the cell surface (human, UniProt P00533); experiment: flow cytometry on A431 cells, MFI; the filing does not name the target on this line, EGFR is taken as the tumour-cell arm of SM2235 (EGFR x CD16A)
T4 construct: full-length, on the cell membrane; Cell-surface form; also called EGFR on CHO-EGFR; CHO-K1-EGFR

[6] = target: T4, EGFR on the cell surface; experiment: flow cytometry on MB231 cells, MFI; the filing does not name the target on this line, EGFR is taken as the tumour-cell arm of SM2235 (EGFR x CD16A)
[7] = target: T5, recombinant human ErbB2 (human, UniProt P04626 in part); experiment: BLI
T5 construct: also called rh-ErbB2

[8] = target: T6, recombinant human ErbB3 (human, UniProt P21860 in part); experiment: BLI
T6 construct: also called rh-ErbB3

[9] = target: T7, recombinant human ErbB4 (human, UniProt Q15303 26-649); experiment: BLI
T7 construct: also called rh-ErbB4
T7 sequence (looked up): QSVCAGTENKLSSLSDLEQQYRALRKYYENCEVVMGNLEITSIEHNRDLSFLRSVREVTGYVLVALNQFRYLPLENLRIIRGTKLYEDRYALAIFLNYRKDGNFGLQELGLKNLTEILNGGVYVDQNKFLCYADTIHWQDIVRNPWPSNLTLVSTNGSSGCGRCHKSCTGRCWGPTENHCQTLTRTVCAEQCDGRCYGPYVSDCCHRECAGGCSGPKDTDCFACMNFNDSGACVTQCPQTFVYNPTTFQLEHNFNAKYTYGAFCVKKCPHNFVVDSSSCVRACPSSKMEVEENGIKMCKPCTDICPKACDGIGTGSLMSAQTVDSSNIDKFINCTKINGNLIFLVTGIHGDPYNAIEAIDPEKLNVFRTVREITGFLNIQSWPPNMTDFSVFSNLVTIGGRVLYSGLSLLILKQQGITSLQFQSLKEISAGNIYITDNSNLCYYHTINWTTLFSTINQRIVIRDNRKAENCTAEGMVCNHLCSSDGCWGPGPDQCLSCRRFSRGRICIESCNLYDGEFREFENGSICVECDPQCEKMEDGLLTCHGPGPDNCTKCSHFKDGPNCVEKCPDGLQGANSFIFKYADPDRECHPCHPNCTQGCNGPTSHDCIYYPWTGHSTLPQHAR

[10] = target: mouse EGFR (mouse, UniProt Q01279 25-647); experiment: BLI
[11] = target: T8, rat CD16 (rat, UniProt P27645 37-221, limits assumed); experiment: BLI
T8 sequence (looked up): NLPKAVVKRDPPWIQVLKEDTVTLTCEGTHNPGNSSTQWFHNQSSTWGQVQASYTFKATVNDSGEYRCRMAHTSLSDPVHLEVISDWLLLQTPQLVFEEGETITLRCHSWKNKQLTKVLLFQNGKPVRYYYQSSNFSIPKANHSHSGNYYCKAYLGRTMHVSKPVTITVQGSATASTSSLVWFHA

[12] = target: T9, mouse CD16 (mouse, UniProt P08508 31-215); experiment: BLI
T9 sequence (looked up): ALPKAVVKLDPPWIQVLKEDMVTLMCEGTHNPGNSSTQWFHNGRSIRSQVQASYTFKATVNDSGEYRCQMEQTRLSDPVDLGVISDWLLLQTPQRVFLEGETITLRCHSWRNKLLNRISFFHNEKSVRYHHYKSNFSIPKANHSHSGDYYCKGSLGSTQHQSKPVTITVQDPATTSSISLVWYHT

[13] = target: T10, recombinant human EGFR (human, UniProt P00533 in part); experiment: BLI, format not stated
T10 construct: also called rh-EGFR

[14] = target: T11, cynomolgus monkey EGFR (cynomolgus monkey, UniProt A0A2K5WK39 25-645); experiment: BLI, format not stated
T11 construct: also called Cyno-EGFR

[15] = target: T12, recombinant human CD16A (human, UniProt P08637 in part); experiment: BLI, format not stated
T12 construct: also called rh-CD16A

[16] = target: T13, cynomolgus monkey CD16A (cynomolgus monkey, UniProt Q8SPW2 17-208); experiment: BLI, format not stated
T13 construct: also called Cyno-CD16A

[17] = target: T14, human CD40 on the cell surface (human, UniProt P25942 21-277); experiment: cell-based or functional assay
[18] = target: T15, human CD47 on the cell surface (human, UniProt Q08722); experiment: flow cytometry on CHO-hCD47 cells, MFI
T15 construct: whole, on cells; also called CHO-hCD47; CD47 on Jurkat cell surface

[19] = target: T14, human CD40 on the cell surface; experiment: flow cytometry on CHO-hCD40 cells, MFI
[20] = target: T16, recombinant human CD47-Fc; experiment: ELISA on recombinant human CD47-Fc, OD450
T16 construct: the sheet prints no antigen name

[21] = target: T17, recombinant human CD40-Fc (human, UniProt P25942 in part); experiment: ELISA on recombinant human CD40-Fc, OD450
T17 construct: also called rh-CD40-Fc; CD40-hFc

[22] = target: T15, human CD47 on the cell surface; experiment: flow cytometry, blocking of SIRPa-his (1 ug/mL) binding to CD47 on Jurkat cells
[23] = target: mouse CD40 (mouse, UniProt P27512 20-193, limits assumed); experiment: BLI
[24] = target: T18, rat CD47 (rat, UniProt P97829 19-140, limits assumed); experiment: BLI
T18 sequence (looked up): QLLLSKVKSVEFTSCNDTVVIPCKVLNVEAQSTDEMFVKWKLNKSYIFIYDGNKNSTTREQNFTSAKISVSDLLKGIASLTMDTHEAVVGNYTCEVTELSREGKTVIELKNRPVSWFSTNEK

[25] = target: T19, mouse CD47 (mouse, UniProt Q61735 19-140, limits assumed); experiment: BLI
T19 sequence (looked up): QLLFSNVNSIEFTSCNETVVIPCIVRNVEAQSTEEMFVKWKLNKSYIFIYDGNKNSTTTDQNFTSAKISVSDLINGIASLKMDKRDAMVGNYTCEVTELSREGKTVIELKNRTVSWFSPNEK

[26] = target: T20, recombinant human CD40 (human, UniProt P25942 in part); experiment: BLI, format not stated
T20 construct: also called rh-CD40

[27] = target: T21, cynomolgus monkey CD40 (cynomolgus monkey, UniProt G7PG38 21-193); experiment: BLI, format not stated
T21 construct: also called Cyno-CD40*

[28] = target: T22, recombinant human CD47 (human, UniProt Q08722 in part); experiment: BLI, format not stated
T22 construct: also called Rh-CD47; rh-CD47

[29] = target: T23, cynomolgus monkey CD47 (cynomolgus monkey, UniProt A0A2K5X523 19-139); experiment: BLI, format not stated
T23 construct: also called Cyno-CD47

T2 sequence (P08637 17-254 limits assumed): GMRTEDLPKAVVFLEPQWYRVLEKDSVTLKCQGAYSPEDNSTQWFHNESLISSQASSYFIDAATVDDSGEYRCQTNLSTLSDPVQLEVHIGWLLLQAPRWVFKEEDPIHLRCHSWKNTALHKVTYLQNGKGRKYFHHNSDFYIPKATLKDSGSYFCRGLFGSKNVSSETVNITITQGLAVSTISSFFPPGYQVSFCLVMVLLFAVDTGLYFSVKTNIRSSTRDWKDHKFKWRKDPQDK
T13 sequence (Q8SPW2 17-208 limits assumed): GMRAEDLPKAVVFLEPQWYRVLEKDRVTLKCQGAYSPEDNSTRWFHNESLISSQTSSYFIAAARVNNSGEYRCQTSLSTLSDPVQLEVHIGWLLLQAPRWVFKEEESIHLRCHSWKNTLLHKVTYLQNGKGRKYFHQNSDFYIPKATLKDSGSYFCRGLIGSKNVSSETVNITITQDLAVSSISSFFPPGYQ
T14 sequence (P25942 21-277): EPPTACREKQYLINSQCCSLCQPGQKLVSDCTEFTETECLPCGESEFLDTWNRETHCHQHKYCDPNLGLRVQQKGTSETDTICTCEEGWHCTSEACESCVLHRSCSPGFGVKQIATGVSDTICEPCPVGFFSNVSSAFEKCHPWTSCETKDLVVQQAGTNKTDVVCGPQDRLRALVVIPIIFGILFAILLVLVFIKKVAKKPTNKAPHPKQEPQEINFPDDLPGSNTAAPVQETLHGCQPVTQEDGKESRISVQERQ
recombinant human CD40-Fc, sequence (P25942 21-193): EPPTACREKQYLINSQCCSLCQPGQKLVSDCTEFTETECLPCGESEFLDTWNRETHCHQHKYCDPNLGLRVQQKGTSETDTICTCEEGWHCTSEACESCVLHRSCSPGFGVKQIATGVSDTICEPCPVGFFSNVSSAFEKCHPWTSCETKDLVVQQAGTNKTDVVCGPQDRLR
UniProt P27512, sequence (P27512 20-193 limits assumed): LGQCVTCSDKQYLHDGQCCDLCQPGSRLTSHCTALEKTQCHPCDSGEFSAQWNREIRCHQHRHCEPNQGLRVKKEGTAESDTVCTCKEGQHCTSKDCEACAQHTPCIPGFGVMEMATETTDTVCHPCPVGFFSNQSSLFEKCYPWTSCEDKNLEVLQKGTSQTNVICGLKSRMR

- EC50 [1]: 0.15 nM
- EC50 [2]: 0.62 nM
- EC50 [3]: 0.14 nM
- EC50 [4]: 0.6 nM
- EC50 [5]: 1.6 nM
- EC50 [6]: 1.02 nM
B1: SM2235 (bispecific antibody)
chain: QVQLVESGGGLVQPGGSLRLSCTASGIRFSFYTLGWYRQAPGKGRELVAEIYSSDNAKYADSVKGRFTISRDNAKNSLYLQMNSLRAEDTAVYYCNVRATDYWGPGTQVTVKPGGGG[letters of human IgG1 Fc with N297A P374S (EU numbers) left out]GGGSGGGGSGGGGSQVQLVESGGGLVQPGGSLRLSCRASGFTFSNHAMSWVRQAPGKGLEWVSEISFNGHATRYADSVKGRFTISRDNSKNTLYLQMNSLRAEDTAVYYCRKGWNATPQIGERGRGTQVTVSS
notes: VHH-Fc-VHH chain specific for EGFR and CD16A

- binding result [7]: no binding
- binding result [8]: no binding
- binding result [9]: no binding
- binding result [10]: no binding
- binding result [11]: no binding
- binding result [12]: no binding
- Kd [13]: 0.346 nM
- koff [13]: 0.000128 s⁻¹
- kon [13]: 369000 M⁻¹ s⁻¹
- Kd [14]: 0.2 nM
- koff [14]: 0.00017 s⁻¹
- kon [14]: 850000 M⁻¹ s⁻¹
- Kd [15]: 0.0385 nM
- koff [15]: 4.28e-05 s⁻¹
- kon [15]: 1.11e+06 M⁻¹ s⁻¹
- koff [16]: 4.28e-05 s⁻¹
- kon [16]: 1.11e+06 M⁻¹ s⁻¹
B2: SMSM2235-113, specific for EGFR and CD16A (bispecific antibody)
chain: QVQLVESGGGLVQPGGSLRLSCTASGIRFSFYTLGWYRQAPGKGRELVAEIYSSDNAKYADSVKGRFTISRDNAKNSLYLQMNSLRAEDTAVYYCNVRATDYWGPGTQVTVKPGGGG[letters of human IgG1 Fc with N297A P374S (EU numbers) left out]GGGSGGGGSGGGGSQVQLVESGGGLVQPGGSLRLSCRASGFTFSNHAMSWVRQAPGKGLEWVSEISFNGHATRYADSVKGRFTISRDNSKNTLYLQMNSLRAEDTAVYYCRKGWNATPQIGERGRGTQVTVSS

- EC50 of luciferase signal in 293T-NFKB-CD40 reporter cells co-cultured with CHO-CD47 cells [17]: 0.1 nM
- EC50 [18]: 0.2 nM
- EC50 [19]: 0.8 nM
- EC50 [20]: 0.12 nM
- EC50 [21]: 0.19 nM
- IC50 [22]: 2.6 nM
B3: SM2248 (bispecific antibody)
chain: EVQLVESGGGLVQPGGSLRLSCAASGGGRTFSNYALGWFRQAPGKEREFVAAISRSGGNINYADSVKGRFTISRDNFKNTLYLQMSSLRPEDTAVYYCAAHYLLLPSYISTSTNMYNYWGQGTQVTVKPGGGG[letters of human IgG1 Fc with N297A P374S (EU numbers) left out]SGGGGSGGGGSQVQLVESGGGLVQPGGSLRLSCSASGRAFNTYTMAWFRQAPGKERDFVAAISRDGTITYYADSVKGRFTISRDNSKNTLYLQMSSLRAEDTAVYYCAARRVGAVPERESAYEHWGQGTQVTVSS
notes: VHH-Fc-VHH chain specific for CD40 and CD47; also called SM2248-177; hA09-10*-Fc(S)-pgDD40-SZ-3-4F1

- binding result [23]: no binding
- binding result [24]: no binding
- binding result [25]: no binding
- Kd [26]: 0.0707 nM
- koff [26]: 5.86e-05 s⁻¹
- kon [26]: 828000 M⁻¹ s⁻¹
- Kd [27]: 0.0528 nM
- koff [27]: 3.36e-05 s⁻¹
- kon [27]: 636000 M⁻¹ s⁻¹
- Kd [28]: 0.08 nM
- koff [28]: 7.11e-05 s⁻¹
- kon [28]: 888000 M⁻¹ s⁻¹
- Kd [29]: 0.757 nM
- koff [29]: 0.00148 s⁻¹
- kon [29]: 1.95e+06 M⁻¹ s⁻¹
B4: SM2248-177, hA09-10*-Fc(S)-pgDD40-SZ-3-4F1, specific for CD40 and CD47 (bispecific antibody)
chain: EVQLVESGGGLVQPGGSLRLSCAASGGGRTFSNYALGWFRQAPGKEREFVAAISRSGGNINYADSVKGRFTISRDNFKNTLYLQMSSLRPEDTAVYYCAAHYLLLPSYISTSTNMYNYWGQGTQVTVKPGGGG[letters of human IgG1 Fc with N297A P374S (EU numbers) left out]SGGGGSGGGGSQVQLVESGGGLVQPGGSLRLSCSASGRAFNTYTMAWFRQAPGKERDFVAAISRDGTITYYADSVKGRFTISRDNSKNTLYLQMSSLRAEDTAVYYCAARRVGAVPERESAYEHWGQGTQVTVSS
